Source: the supplement of paper PMC12230231

test system: SIVsab (simian immunodeficiency virus of sabaeus monkeys), single-cycle GFP reporter, in CRFK cells; assay: enrichment among infected cells over input (fold); higher = weaker restriction; settings: library: human / rhesus combinations
Procedure: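 Pools of CRFK cells expressing variants of the TRIM5α v1 loop were challenged with the single-cycle reporter, sorted by GFP and sequenced; mean of two replicates.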

Sequence	enrichment
MASGILLNVKEEVTCPICLELLTEPLSLHCGHSFCQACITANHKKSMLYKEGERSCPVCRISYQPENIQPNRHVANIVEKLREVKLSPEEGQKVDHCARHGEKLLLFCQEDSKVICWLCERSQEHRGHHTFLMEEVAQEYHVKLQTALEMLRQKQQEAEKLEADIREEKASWKIQIDYDKTNVSADFEQLREILDWEESNELQNLEKEEEDILKSLTKSETEMVQQTQYMRELISELEHRLQGSMMDLLQGVDGIIKRIENMTLKKPKTFHKNQRRVFRAPDLKGMLDMFRELTDARRYWVDVTLAPNNISHAVIAEDKRQVSSRNPQIMYGAPGTRFTFPTLVNFNYCTGVLGSQSITSGKHYWEVDVSKKSAWILGVCAGFQSDAMYNIEQNENYQPKYGYWVIGLQEGVKYSVFQDGSSHTPFAPFIVPLSVIICPDRVGVFVDYEACTVSFFNITNHGFLIYKFSQCSFSKPVFPYLNPRKCTVPMTLCSPSS [rhesus TRIM5α, 332-344 = GAPGTRFTFPTLV]	0.905 ± 0.18
MASGILLNVKEEVTCPICLELLTEPLSLHCGHSFCQACITANHKKSMLYKEGERSCPVCRISYQPENIQPNRHVANIVEKLREVKLSPEEGQKVDHCARHGEKLLLFCQEDSKVICWLCERSQEHRGHHTFLMEEVAQEYHVKLQTALEMLRQKQQEAEKLEADIREEKASWKIQIDYDKTNVSADFEQLREILDWEESNELQNLEKEEEDILKSLTKSETEMVQQTQYMRELISELEHRLQGSMMDLLQGVDGIIKRIENMTLKKPKTFHKNQRRVFRAPDLKGMLDMFRELTDARRYWVDVTLAPNNISHAVIAEDKRQVSSRNPQIMYGARGTRFTFPTFTNFNYCTGVLGSQSITSGKHYWEVDVSKKSAWILGVCAGFQSDAMYNIEQNENYQPKYGYWVIGLQEGVKYSVFQDGSSHTPFAPFIVPLSVIICPDRVGVFVDYEACTVSFFNITNHGFLIYKFSQCSFSKPVFPYLNPRKCTVPMTLCSPSS [rhesus TRIM5α, 332-344 = GARGTRFTFPTFT]	1.5 ± 0.69
MASGILLNVKEEVTCPICLELLTEPLSLHCGHSFCQACITANHKKSMLYKEGERSCPVCRISYQPENIQPNRHVANIVEKLREVKLSPEEGQKVDHCARHGEKLLLFCQEDSKVICWLCERSQEHRGHHTFLMEEVAQEYHVKLQTALEMLRQKQQEAEKLEADIREEKASWKIQIDYDKTNVSADFEQLREILDWEESNELQNLEKEEEDILKSLTKSETEMVQQTQYMRELISELEHRLQGSMMDLLQGVDGIIKRIENMTLKKPKTFHKNQRRVFRAPDLKGMLDMFRELTDARRYWVDVTLAPNNISHAVIAEDKRQVSSRNPQIMYQAPGTLYTFQSLVNFNYCTGVLGSQSITSGKHYWEVDVSKKSAWILGVCAGFQSDAMYNIEQNENYQPKYGYWVIGLQEGVKYSVFQDGSSHTPFAPFIVPLSVIICPDRVGVFVDYEACTVSFFNITNHGFLIYKFSQCSFSKPVFPYLNPRKCTVPMTLCSPSS [rhesus TRIM5α, 332-344 = QAPGTLYTFQSLV]	1.57 ± 0.28
MASGILLNVKEEVTCPICLELLTEPLSLHCGHSFCQACITANHKKSMLYKEGERSCPVCRISYQPENIQPNRHVANIVEKLREVKLSPEEGQKVDHCARHGEKLLLFCQEDSKVICWLCERSQEHRGHHTFLMEEVAQEYHVKLQTALEMLRQKQQEAEKLEADIREEKASWKIQIDYDKTNVSADFEQLREILDWEESNELQNLEKEEEDILKSLTKSETEMVQQTQYMRELISELEHRLQGSMMDLLQGVDGIIKRIENMTLKKPKTFHKNQRRVFRAPDLKGMLDMFRELTDARRYWVDVTLAPNNISHAVIAEDKRQVSSRNPQIMYGAPGTLYTFPTLTNFNYCTGVLGSQSITSGKHYWEVDVSKKSAWILGVCAGFQSDAMYNIEQNENYQPKYGYWVIGLQEGVKYSVFQDGSSHTPFAPFIVPLSVIICPDRVGVFVDYEACTVSFFNITNHGFLIYKFSQCSFSKPVFPYLNPRKCTVPMTLCSPSS [rhesus TRIM5α, 332-344 = GAPGTLYTFPTLT]	2.15 ± 0.81
MASGILLNVKEEVTCPICLELLTEPLSLHCGHSFCQACITANHKKSMLYKEGERSCPVCRISYQPENIQPNRHVANIVEKLREVKLSPEEGQKVDHCARHGEKLLLFCQEDSKVICWLCERSQEHRGHHTFLMEEVAQEYHVKLQTALEMLRQKQQEAEKLEADIREEKASWKIQIDYDKTNVSADFEQLREILDWEESNELQNLEKEEEDILKSLTKSETEMVQQTQYMRELISELEHRLQGSMMDLLQGVDGIIKRIENMTLKKPKTFHKNQRRVFRAPDLKGMLDMFRELTDARRYWVDVTLAPNNISHAVIAEDKRQVSSRNPQIMYGARGTRFPSLTNFNYCTGVLGSQSITSGKHYWEVDVSKKSAWILGVCAGFQSDAMYNIEQNENYQPKYGYWVIGLQEGVKYSVFQDGSSHTPFAPFIVPLSVIICPDRVGVFVDYEACTVSFFNITNHGFLIYKFSQCSFSKPVFPYLNPRKCTVPMTLCSPSS [rhesus TRIM5α, 332-344 = GARGTRFPSLT]	4.63 ± 3.6
MASGILLNVKEEVTCPICLELLTEPLSLHCGHSFCQACITANHKKSMLYKEGERSCPVCRISYQPENIQPNRHVANIVEKLREVKLSPEEGQKVDHCARHGEKLLLFCQEDSKVICWLCERSQEHRGHHTFLMEEVAQEYHVKLQTALEMLRQKQQEAEKLEADIREEKASWKIQIDYDKTNVSADFEQLREILDWEESNELQNLEKEEEDILKSLTKSETEMVQQTQYMRELISELEHRLQGSMMDLLQGVDGIIKRIENMTLKKPKTFHKNQRRVFRAPDLKGMLDMFRELTDARRYWVDVTLAPNNISHAVIAEDKRQVSSRNPQIMYGARGTRFQSFTNFNYCTGVLGSQSITSGKHYWEVDVSKKSAWILGVCAGFQSDAMYNIEQNENYQPKYGYWVIGLQEGVKYSVFQDGSSHTPFAPFIVPLSVIICPDRVGVFVDYEACTVSFFNITNHGFLIYKFSQCSFSKPVFPYLNPRKCTVPMTLCSPSS [rhesus TRIM5α, 332-344 = GARGTRFQSFT]	3.57 ± 4.1
MASGILLNVKEEVTCPICLELLTEPLSLHCGHSFCQACITANHKKSMLYKEGERSCPVCRISYQPENIQPNRHVANIVEKLREVKLSPEEGQKVDHCARHGEKLLLFCQEDSKVICWLCERSQEHRGHHTFLMEEVAQEYHVKLQTALEMLRQKQQEAEKLEADIREEKASWKIQIDYDKTNVSADFEQLREILDWEESNELQNLEKEEEDILKSLTKSETEMVQQTQYMRELISELEHRLQGSMMDLLQGVDGIIKRIENMTLKKPKTFHKNQRRVFRAPDLKGMLDMFRELTDARRYWVDVTLAPNNISHAVIAEDKRQVSSRNPQIMYGARGTRYTFPSLTNFNYCTGVLGSQSITSGKHYWEVDVSKKSAWILGVCAGFQSDAMYNIEQNENYQPKYGYWVIGLQEGVKYSVFQDGSSHTPFAPFIVPLSVIICPDRVGVFVDYEACTVSFFNITNHGFLIYKFSQCSFSKPVFPYLNPRKCTVPMTLCSPSS [rhesus TRIM5α, 332-344 = GARGTRYTFPSLT]	1.43 ± 1
MASGILLNVKEEVTCPICLELLTEPLSLHCGHSFCQACITANHKKSMLYKEGERSCPVCRISYQPENIQPNRHVANIVEKLREVKLSPEEGQKVDHCARHGEKLLLFCQEDSKVICWLCERSQEHRGHHTFLMEEVAQEYHVKLQTALEMLRQKQQEAEKLEADIREEKASWKIQIDYDKTNVSADFEQLREILDWEESNELQNLEKEEEDILKSLTKSETEMVQQTQYMRELISELEHRLQGSMMDLLQGVDGIIKRIENMTLKKPKTFHKNQRRVFRAPDLKGMLDMFRELTDARRYWVDVTLAPNNISHAVIAEDKRQVSSRNPQIMYQARGTLFTFPTFVNFNYCTGVLGSQSITSGKHYWEVDVSKKSAWILGVCAGFQSDAMYNIEQNENYQPKYGYWVIGLQEGVKYSVFQDGSSHTPFAPFIVPLSVIICPDRVGVFVDYEACTVSFFNITNHGFLIYKFSQCSFSKPVFPYLNPRKCTVPMTLCSPSS [rhesus TRIM5α, 332-344 = QARGTLFTFPTFV]	0.207 ± 0.11

± gives the standard deviation of the averaged measurements. Restriction of a single-cycle SIVsab GFP reporter by TRIM5α v1-loop variants in CRFK cells. Human variants: read share among cells still uninfected after two challenges over input, higher = gained restriction. Rhesus variants: share among infected cells over input, higher = lost restriction. Reporter dose not given per row. No active / inactive call per row; the paper calls a change when both replicates lie above its controls (mean + 2 SD of stop or wild-type variants, or the top frameshift score). Residues outside the varied loop are taken from Swiss-Prot. The paper reads the human single-substitution scores as noise; they and the rhesus combinations repeat poorly (rank correlation 0.3 to 0.4), indel scores repeat only for the top variants, rhesus substitutions well (0.9).
